# Screen size: about 39,000 compounds; about 220 (0.56%) showed activity. The list shows a part of the results.
# Test system: Escherichia coli K-12 BW25113
# Assay: relative growth (OD600 normalised to plate interquartile mean) (fraction); higher = less growth inhibition, active = 0.2 or less
# Conditions: 50 µM; LB; incubation time: overnight (16-24 h)
# 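Also: static incubation at 37 °C against the wild-type strain, values averaged over two biological replicates.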
row,SMILES,relative growth
1,O=C(CCCCCNc1nc(=S)[nH]c2ccccc12)N1CCC(O)(c2cccc(C(F)(F)F)c2)CC1,inactive: 0.913
2,C[C@@H]1CN([C@@H](C)CO)C(=O)c2cccc(NC(=O)Nc3ccc4c(c3)OCO4)c2O[C@@H]1CN(C)S(C)(=O)=O,inactive: 0.983
3,C[C@@H]1CN([C@H](C)CO)C(=O)c2cccc(NS(=O)(=O)c3ccc(F)cc3)c2O[C@H]1CN(C)Cc1ccncc1,inactive: 1
4,C[C@H](CO)N1C[C@H](C)[C@@H](CN(C)Cc2ccccn2)Oc2ncc(C#Cc3ccc(F)cc3)cc2C1=O,inactive: 0.996
5,C[C@@H]1CN([C@@H](C)CO)C(=O)c2cccc(NC(=O)c3nc4ccccc4s3)c2O[C@@H]1CN(C)C(=O)Nc1cccc2ccccc12,inactive: 0.986
6,C=CCC[C@H](Cc1ccc(F)cc1)C(=O)O[C@@H](CNC(=O)[C@@H](CC=C)CC(=O)N(CCO)Cc1ccccc1)c1ccccc1,inactive: 1.07
7,COC(=O)CNC(=O)/C=C/c1ccc(OC)cc1,inactive: 0.994
8,C[C@H](CO)N1C[C@H](C)[C@@H](CN(C)C(=O)Nc2cccc3ccccc23)Oc2ccc(NC(=O)Cn3cnnn3)cc2CC1=O,inactive: 1.01
9,C[C@@H]1CN([C@@H](C)CO)C(=O)c2cc(NS(=O)(=O)c3ccc(Cl)cc3)ccc2O[C@@H](C)CCCCO[C@H]1CN(C)Cc1ccc(C(F)(F)F)cc1,inactive: 1.03
10,COC(=O)c1c2oc(c1C(=O)OC)C(=O)N[C@@H](Cc1ccccc1)Cn1cc(nn1)[C@H](Cc1ccccc1)NC(=O)N[C@@H](CO)CC2,inactive: 0.997
11,CSc1nc2ccc(N)cc2s1,inactive: 1
12,C[C@H](CO)N1C[C@H](C)[C@H](CN(C)Cc2ccc3c(c2)OCCN3C)OCc2ccccc2-c2c(n(C)c3ccccc23)C1=O,inactive: 1
13,C[C@@H]1[C@@H]([Si](C)(C)F)[C@H](CC(=O)N2Cc3ccccc3C[C@H]2CO)O[C@@]12C(=O)N(c1ccccc1)c1ccccc12,inactive: 0.998
14,NCC1CCC(N)C(OC2C(N)CC(N)C(OC3OC(CO)C(O)C(N)C3O)C2O)O1 (stereo not drawn),inactive: 0.947
15,c1ccc(-c2nc3ccccc3o2)nc1,inactive: 0.99
16,CC(=O)Oc1c(C)cccc1C(=O)O,inactive: 0.96
17,C[C@@H]1CN([C@@H](C)CO)C(=O)c2cc(NS(=O)(=O)c3cn(C)cn3)ccc2O[C@@H](C)CCCCO[C@H]1CN(C)S(=O)(=O)c1cn(C)cn1,inactive: 0.979
18,COC[C@H]1C[C@H](c2ccc(NC(=O)CCCCCCC(=O)NO)cc2)O[C@H](c2ccc([C@H]3O[C@@H](COC)C[C@H](c4ccc(NC(=O)CCCCCCC(=O)NO)cc4)O3)cc2)O1,inactive: 0.983
19,O=C(O)[C@H]1CCCC[C@H]1C(=O)N1CCc2ccccc2[C@H]1CNS(=O)(=O)c1ccc([N+](=O)[O-])cc1,inactive: 1.02

row,SMILES,relative growth
1,C[C@H](CO)N1C[C@H](C)[C@@H](CN(C)CC2CCCCC2)Oc2ccc(NC(=O)Nc3ccc(C(F)(F)F)cc3)cc2C1=O,inactive: 0.977
2,COCC(=O)N(C)C[C@H]1Oc2cc(C#C[C@@H](C)O)ccc2S(=O)(=O)N([C@H](C)CO)C[C@@H]1C,inactive: 0.996
3,COc1ccc(S(=O)(=O)Nc2ccc3c(c2)C(=O)N([C@H](C)CO)C[C@H](C)[C@@H](CN(C)S(C)(=O)=O)OCCCC[C@H](C)O3)cc1,inactive: 1.02
4,C[C@@H]1CCCCO[C@H](CN(C)C(=O)Nc2ccc(C(F)(F)F)cc2)[C@H](C)CN([C@@H](C)CO)C(=O)c2cc(NS(=O)(=O)c3ccccc3)ccc2O1,inactive: 1.01
5,C[C@@H]1CCCCO[C@@H](CN(C)S(=O)(=O)c2cccs2)[C@@H](C)CN([C@H](C)CO)C(=O)c2cc(NC(=O)Nc3ccc4c(c3)OCO4)ccc2O1,inactive: 1.02
6,C[C@@H]1CN([C@H](C)CO)C(=O)c2cccc(NC(=O)c3nc4ccccc4s3)c2O[C@H]1CN(C)C(=O)Nc1cccc2ccccc12,inactive: 1.01
7,C[C@H]1CN([C@@H](C)CO)C(=O)c2cccc(NC(=O)Nc3cccc4ccccc34)c2O[C@H]1CN(C)Cc1ccc(C(F)(F)F)cc1,inactive: 1.04
8,C[C@H](CO)N1C[C@H](C)[C@H](CN(C)Cc2cccc(C(F)(F)F)c2)OCc2ccccc2-c2c(n(C)c3ccccc23)C1=O,inactive: 1.03
9,Cc1ccc(S(=O)(=O)Nc2ccc3c(c2)C(=O)N([C@@H](C)CO)C[C@H](C)[C@@H](CN(C)S(=O)(=O)c2ccc(F)cc2)OCCCC[C@H](C)O3)cc1,inactive: 1.02
10,COc1ccc(S(=O)(=O)Nc2ccc3c(c2)C(=O)N([C@H](C)CO)C[C@@H](C)[C@H](CN(C)S(=O)(=O)c2cn(C)cn2)OCCCC[C@@H](C)O3)cc1,inactive: 1.02
11,C[C@H]1CN([C@@H](C)CO)C(=O)c2cc(NS(=O)(=O)c3ccc(F)cc3)ccc2O[C@@H]1CN(C)CC1CC1,inactive: 1.01
12,C[C@@H]1CCCCO[C@H](CN(C)C(=O)C2CCCCC2)[C@@H](C)CN([C@H](C)CO)C(=O)c2cc(NC(=O)NC3CCCCC3)ccc2O1,inactive: 1.01
13,C[C@H](CO)N1C[C@H](C)[C@@H](CN(C)C(=O)c2cccc(F)c2)Oc2cc(-c3cccnc3)ccc2S1(=O)=O,inactive: 0.997
14,O=S(=O)(NCC[C@@H]1CC[C@@H](NS(=O)(=O)c2cccc(Cl)c2)[C@H](CO)O1)c1cccc(F)c1,inactive: 1
15,C[C@@H]1CN([C@@H](C)CO)S(=O)(=O)c2ccc(C#CCN(C)C)cc2O[C@@H]1CN(C)C(=O)C1CCCCC1,inactive: 0.994
16,C[C@@H]1CN([C@@H](C)CO)C(=O)c2cc(NC(=O)CCN3CCOCC3)ccc2O[C@@H]1CN(C)C(=O)Nc1ccccc1,inactive: 0.973
17,O=c1[nH]c(=S)nc2n(CCO)[nH]cc1-2,inactive: 1
18,NC(=O)c1ncn([C@@H]2O[C@H](CO)[C@@H](O)[C@H]2O)c1N,inactive: 0.993
19,O=C(O)c1ccccc1-c1c2cc(I)c(=O)c(I)c-2oc2c(I)c(O)c(I)cc12,inactive: 0.961

# From the supplement of paper PMC9446081
